This is one part of the list.
What follows are compounds tested on S. aureus RN4220 (assay: growth inhibition call (relative growth <= 0.2)). Settings: 50 µM.

Growth inhibition call, inactive:
CO[C@H]1CCN(C(=O)CN(C)C)[C@@H]2CCO[C@@H]12
O=C(C[C@H]1CC[C@@H](NC(=O)CN2CCOCC2)[C@H](CO)O1)NCCc1ccccc1
COc1ccc(CN(C)C[C@H]2Oc3c(NC(=O)C4CCOCC4)cccc3C(=O)N([C@@H](C)CO)C[C@@H]2C)cc1
C[C@H](CO)N1C[C@H](C)[C@@H](CN(C)C(=O)Nc2cccc3ccccc23)OCCCC[C@H](C)Oc2ccc(NC(=O)CCCN(C)C)cc2C1=O
O=C(Cc1ccccn1)NCC[C@@H]1CC[C@H](NC(=O)CN2CCOCC2)[C@H](CO)O1
C[C@@H]1CCCCO[C@H](CN(C)S(=O)(=O)c2ccc(Cl)cc2)[C@@H](C)CN([C@H](C)CO)C(=O)c2cc(NC(=O)Nc3ccc(C(F)(F)F)cc3)ccc2O1
CC(C)NC(=O)Nc1ccc2c(c1)C(=O)N([C@@H](C)CO)C[C@H](C)[C@H](CN(C)S(=O)(=O)c1ccc(Cl)cc1)O2
C[C@@H]1CCCCO[C@H](CN(C)Cc2ccc(C(=O)O)cc2)[C@@H](C)CN([C@@H](C)CO)C(=O)c2cc(NC(=O)Cc3ccccc3)ccc2O1
C[C@@H]1CCCCO[C@@H](CN(C)C(=O)C2CCCCC2)[C@@H](C)CN([C@H](C)CO)C(=O)c2cc(NS(=O)(=O)c3ccc(Cl)cc3)ccc2O1
C[C@@H]1CCCCO[C@H](CN(C)S(=O)(=O)c2cn(C)cn2)[C@@H](C)CN([C@H](C)CO)C(=O)c2cc(NS(=O)(=O)c3ccc(F)cc3)ccc2O1
O=C(C[C@H]1CC[C@@H](NC(=O)c2ccc(F)cc2)[C@@H](CO)O1)NCc1ccncn1
C[C@@H]1CN([C@@H](C)CO)C(=O)CCCn2nncc2CO[C@H]1CN(C)C(=O)Nc1ccccc1C(F)(F)F
NNC(=O)c1cc(-c2ccccc2)n[nH]1
COc1ccc(CN(C)C[C@@H]2OCCCC[C@@H](C)Oc3ccc(NC(=O)Nc4cccc5ccccc45)cc3C(=O)N([C@H](C)CO)C[C@H]2C)cc1
C[C@H](CO)N1C[C@H](C)[C@@H](CN(C)C(=O)Nc2ccc(F)cc2)OCCCC[C@H](C)Oc2ccc(NC(=O)c3ccccc3)cc2C1=O
COCC(=O)N(C)C[C@H]1Oc2cc(C#Cc3ccccc3)ccc2S(=O)(=O)N([C@@H](C)CO)C[C@H]1C
C[C@@H]1CN([C@@H](C)CO)C(=O)c2cc(NC(=O)NC3CCCCC3)ccc2O[C@@H]1CN(C)C(=O)Nc1cccc2ccccc12
O=C1CN(S(=O)(=O)Cc2ccccc2)C[C@H]2[C@H](c3ccc(C#Cc4ccc(F)cc4)cc3)[C@@H](CO)N12
COc1ccc(NC(=O)N(C)C[C@H]2OCCCC[C@@H](C)Oc3ccc(NS(=O)(=O)c4ccc(Cl)cc4)cc3C(=O)N([C@H](C)CO)C[C@@H]2C)cc1
C[C@@H]1CN([C@H](C)CO)C(=O)c2cccc(NS(=O)(=O)c3cccs3)c2O[C@H]1CN(C)S(=O)(=O)c1cn(C)cn1
COc1ccc(CN(C)C[C@H]2OCCCC[C@H](C)Oc3ccc(NS(=O)(=O)c4ccc(OC)cc4)cc3C(=O)N([C@@H](C)CO)C[C@H]2C)cc1
C[C@H](CO)N1C[C@H](C)[C@@H](CN(C)S(=O)(=O)c2cn(C)cn2)OCCCC[C@H](C)Oc2ccc(NC(=O)c3ccncc3)cc2C1=O
CC(=N)NCCSCC[C@H](N)C(=O)O
Cc1ccc(S(=O)(=O)N(C)C[C@@H]2OCCCC[C@@H](C)Oc3ccc(NS(=O)(=O)c4ccc(F)cc4)cc3C(=O)N([C@@H](C)CO)C[C@@H]2C)cc1
O=C(/C=C/c1ccc(O)c(O)c1)O[C@@H]1C[C@@](O)(C(=O)O)C[C@@H](O)[C@@H]1O
NC(=O)NCc1ccc2c(c1)OCO2
CC1=NC(=O)C2(CCNCC2)N1
C[C@H](CO)N1C[C@H](C)[C@H](CN(C)S(=O)(=O)c2cccs2)Oc2ccc(NS(=O)(=O)c3cn(C)cn3)cc2C1=O
CN(C)CCCNC(=O)C[C@H]1CC[C@@H]2[C@H](COc3ccc(NC(=O)c4ccc5c(c4)OCO5)cc3C(=O)N2C)O1
Cc1ccc(S(=O)(=O)Nc2ccc3c(c2)CC(=O)N([C@H](C)CO)C[C@@H](C)[C@@H](CN(C)C(=O)Nc2ccc(C(F)(F)F)cc2)O3)cc1
C[C@@H]1CN([C@@H](C)CO)C(=O)c2cc(NC(=O)CCCN(C)C)ccc2O[C@H]1CN(C)C(=O)Nc1ccc(F)cc1
CCN1CCN(C(=O)CN2C(=O)c3ccccc3S2(=O)=O)CC1
CC(=O)OC1CC(O)C(C)(C)C2CC(OC(C)=O)C3(C)C(CCC4(C)C(c5ccoc5)OC(=O)C5OC543)C12C (stereo not given)
CN(C)CC(=O)N1[C@@H]2c3cccc(=O)n3C[C@H]1[C@H](CO)[C@H]2C(=O)NCc1ccccc1
O=C1CN(C(=O)c2ccc3c(c2)OCO3)CCN1
C[C@@H]1CN([C@H](C)CO)C(=O)c2cc(NC(=O)Nc3cccc4ccccc34)ccc2O[C@@H](C)CCCCO[C@H]1CN(C)Cc1ccncc1
C[C@@H]1CN([C@@H](C)CO)C(=O)c2cc(NC(=O)C3CCCCC3)ccc2O[C@@H](C)CCCCO[C@@H]1CN(C)C(=O)Nc1ccc2c(c1)OCO2
CC(C)NC(=O)Nc1ccc2c(c1)C(=O)N([C@@H](C)CO)C[C@@H](C)[C@H](CN(C)S(=O)(=O)c1ccc(F)cc1)O2
C[C@@H]1CN([C@@H](C)CO)C(=O)Cc2cc(NC(=O)Nc3ccccc3)ccc2O[C@@H]1CN(C)Cc1ccc(Cl)c(Cl)c1
C[C@@H]1CN([C@@H](C)CO)C(=O)c2cccc(NS(=O)(=O)c3ccc(Cl)cc3)c2O[C@@H]1CN(C)C(=O)Nc1ccc(C(F)(F)F)cc1

From the antibiotic and cytotoxicity screens of Wong et al. (2023)
